# According to paper PMC4336329 (PLoS ONE, 2015):
# The campaign covered roughly 310,000 compounds. About 14,000 (4.5%) showed an effect of 50% or more. Effects have a minus sign here. This is one part of the list.
# Molecular target: human ether-à-go-go-related gene (hERG) potassium channel (human, UniProt Q12809)
# Assay: primary screen, population patch clamp on CHO cells stably expressing hERG
# 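Also: peak tail current of the secondary pulse compared with the same well before compound.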
# human ether-à-go-go-related gene (hERG) potassium channel, sequence (Q12809 whole entry, looked up): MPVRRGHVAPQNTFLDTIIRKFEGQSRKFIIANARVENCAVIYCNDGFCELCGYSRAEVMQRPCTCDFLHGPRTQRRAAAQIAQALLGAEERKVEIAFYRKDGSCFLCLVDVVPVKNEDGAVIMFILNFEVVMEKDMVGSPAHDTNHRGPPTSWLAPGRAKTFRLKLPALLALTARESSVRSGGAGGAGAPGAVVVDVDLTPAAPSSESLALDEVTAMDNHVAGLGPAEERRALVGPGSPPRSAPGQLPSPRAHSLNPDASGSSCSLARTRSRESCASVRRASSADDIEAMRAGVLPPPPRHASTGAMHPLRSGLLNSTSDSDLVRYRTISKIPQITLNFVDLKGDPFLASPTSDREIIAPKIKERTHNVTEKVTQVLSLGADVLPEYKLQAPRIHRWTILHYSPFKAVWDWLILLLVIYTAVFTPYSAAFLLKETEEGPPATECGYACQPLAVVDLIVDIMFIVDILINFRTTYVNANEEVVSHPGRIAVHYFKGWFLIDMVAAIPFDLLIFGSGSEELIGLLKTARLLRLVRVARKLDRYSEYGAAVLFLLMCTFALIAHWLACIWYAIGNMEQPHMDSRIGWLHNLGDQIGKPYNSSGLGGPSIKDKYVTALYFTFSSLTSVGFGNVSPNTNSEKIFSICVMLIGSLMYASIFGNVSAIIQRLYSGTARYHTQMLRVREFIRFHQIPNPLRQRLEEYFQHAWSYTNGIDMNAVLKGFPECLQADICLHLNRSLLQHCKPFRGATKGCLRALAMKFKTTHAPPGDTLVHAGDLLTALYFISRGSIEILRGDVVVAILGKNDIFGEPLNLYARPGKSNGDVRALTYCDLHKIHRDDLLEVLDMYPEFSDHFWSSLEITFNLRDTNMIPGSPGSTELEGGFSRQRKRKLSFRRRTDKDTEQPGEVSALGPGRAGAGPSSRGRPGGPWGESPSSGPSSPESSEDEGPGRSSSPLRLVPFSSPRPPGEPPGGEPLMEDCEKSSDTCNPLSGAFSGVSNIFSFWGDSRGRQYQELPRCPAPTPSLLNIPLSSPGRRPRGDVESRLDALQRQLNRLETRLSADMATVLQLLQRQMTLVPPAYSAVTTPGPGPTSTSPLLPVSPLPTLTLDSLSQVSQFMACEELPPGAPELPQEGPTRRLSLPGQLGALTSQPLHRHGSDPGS
row,SMILES,"hERG current change (%, negative = inhibition) at 10uM [%]"
1,Cc1oc(C(C)(C)C)cc1C(=O)Nc1cccc(/C=C/C(=O)O)c1,3.33
2,CN1CCCN(C(=O)c2cc(=O)[nH]c3ccccc23)c2nc3ccccc3nc21,-6.12
3,CN(C)CCCNC(=O)c1cc(C(=O)Cc2ccc(Cl)cc2)c[nH]1,-46.2
4,O=S(=O)(c1ccc2ccccc2c1)N1CCN(C(=S)Nc2ccccc2F)CC1,-7.61
5,O=C(N/N=C/c1ccccn1)c1cc(-c2ccccc2Cl)n[nH]1,4.74
6,O=C(CNS(=O)(=O)/C=C/c1ccccc1)OC1CCOC1=O (stereo not drawn),15.9
7,Cc1cc(C)n(-c2ccc(Cl)c(C(=O)Nc3ccc(OC(F)(F)F)cc3)n2)n1,4.24
8,C/C(=N\Nc1cccc2cccnc12)c1ccccn1,20
9,CC(=O)N1CCC2(CC1)C(C#N)=C(N)Oc1n[nH]c(C(F)(F)F)c12,10.9
10,COc1ccccc1N1CC=C(c2cccc([N+](=O)[O-])c2)NC1=O,0.557
11,CC(=O)c1sc(NC(=O)CSC(C)C(=O)Nc2cc(C)on2)nc1-c1ccccc1 (stereo not drawn),-13.3
12,COc1ccccc1COCC(O)CNCCc1ccc(C(F)(F)F)cc1.O=C(O)C(=O)O (stereo not drawn),-56.5
13,O=C(NCC1CCN(Cc2cccc(Cl)c2)CC1)C1CCCN(c2ncnc3c2nc2n3CCCCC2)C1 (stereo not drawn),-44.5
14,CCOc1cc(NC(=S)NCCCN2CCOCC2)c(OCC)cc1NC(=O)c1ccccc1,26
15,CCOc1ccccc1NC(=S)N1CCN(c2cccc(C)c2C)CC1,8.15
16,C/C(=N\OC(=O)Nc1ccc(Cl)cc1)c1ncc(C(F)(F)F)cc1N1CCOCC1,-6.53
17,CCOC(=O)c1cccc(S(=O)(=O)N2CCCC2)c1,8.7
18,CSc1ccccc1OCc1cc(C(=O)NC(C)CCn2cccn2)no1 (stereo not drawn),-0.424
19,CCc1ccc(C(=O)N2CCN(S(=O)(=O)c3sc(C(=O)O)c(C)c3C(=O)O)CC2)cc1,11.2
20,O=C1NC2(CCCCO2)CO1 (stereo not drawn),13.5
21,Cc1ccc(NC(=O)CSc2nnc(-c3ccncc3)n2N)cc1C,11.7
22,COC(=O)c1[nH]c2c(c1C)C(=O)CCC2,21.1
23,CCN(CC)c1ccc2ccc(=O)oc2c1,2.55

row,SMILES,"hERG current change (%, negative = inhibition) at 10uM [%]"
1,Cc1ccc(OCc2cc(C(=O)N3CCN(CC(=O)NC(C)C)CC3)no2)cn1,18.5
2,Cc1ccc(NC(=O)CCC(=O)NNC(=O)CCc2ccccc2)c(C)c1,16.7
3,COc1ccc(/C(O)=C2/C(=O)C(=O)N(c3ncccn3)C2c2ccc(C(C)(C)C)cc2)cc1 (stereo not drawn),-2.49
4,COc1ccc(OC)c(N=CC2=C(O)CC(C)(C)CC2=O)c1,0.766
5,CNC(=S)N=Nc1c(O)[nH]c2ccc(C(C)C)cc12,3.79
6,CCN(CC)CCN(C)C(=O)CCc1nnc(-c2ccc(C)s2)o1,-7.35
7,Cn1c(=O)c2c(ncn2CC(COCc2ccccc2Cl)OCc2ccccc2Cl)n(C)c1=O (stereo not drawn),-33.6
8,O=C(Cc1ccccc1)NNC(=S)NC(=O)c1cccnc1,14.7
9,Cc1cccc(C)c1NC(=O)C1=C(O)c2sccc2N(C)S1(=O)=O,7.42
10,COC(=O)[C@H](CC(C)C)NC(=O)NC1CCCc2ccccc21 (stereo partly drawn),15
11,COc1ccc(C)cc1NC(=O)CSc1nnc(COc2ccc(C)cc2)n1Cc1ccco1,-27.1
12,COc1ccc(CNC(=O)C(C)Sc2nc3ccccc3c(=O)n2CC2CCCO2)cc1 (stereo not drawn),-78.7
13,Cc1ccc2cc3c(nc2c1)OCC3,2.26
14,O=S(=O)(c1ccc2c(c1)CCCN2)N1CCCC2CCCCC21 (stereo not drawn),-1.49
15,CC(C)C(OC(=O)Cn1nnc2ccccc21)C(=O)NC1CCCC1 (stereo not drawn),4.65
16,Oc1cccc(C(=S)N2CCCCC2)c1,6.67
17,Cc1ccc(SCCC(=O)Nc2ccccc2C(=O)N2CCOCC2)cc1,-6.5
18,CC(C)(C)c1ccc(C(=O)NC(=S)N2CCCC2)cc1,19.4
19,Cc1ccc(C(=O)O)cc1NC(=S)NC(=O)c1ccc(-c2ccc(Cl)cc2)o1,5.42
20,O=C(CSc1nc2[nH]c(=O)cc(O)c2s1)Nc1ccc(Cl)c(C(F)(F)F)c1,2.18
21,Cc1cc(C)c(S(=O)(=O)Nc2ccc(O)c(Sc3ncn[nH]3)c2)cc1C,0.694
22,COc1cc(CN2CCN(Cc3ccc(C(F)(F)F)cc3)CC2)cc(OC)c1OC.O=C(O)C(=O)O,-54.1
23,Cc1nc2cc(Nc3ccncc3)ccc2s1,-30.1

row,SMILES,"hERG current change (%, negative = inhibition) at 10uM [%]"
1,CC12CCC(=O)N1C(C(=O)NNC(=O)c1ccccc1Cl)CS2 (stereo not drawn),6.4
2,Cc1onc(-c2c(F)cccc2Cl)c1C(=O)ONC(=O)c1ccco1,-9.99
3,Cc1ccc(C(=O)Nc2cccc(NC(=O)c3cccnc3)c2)cc1,6.03
4,Cc1ccc(NS(=O)(=O)c2ccc(-c3ccc(=O)[nH]n3)o2)cc1Cl,16.1
5,O=c1[nH]c2ccccc2n1Cc1ccccc1,0.674
6,CC1=C(C(=O)Nc2ccc(Cl)cc2C(=O)N2CCC(C(N)=O)CC2)SCCO1,12.1
7,Cc1ccc(N2C(=O)C(CN(C)C)C2c2ccccc2)cc1 (stereo not drawn),-33.1
8,COC(=O)c1ccc(NN=Nc2ccc(C)cc2)cc1,1.46
9,Cc1cnc(NC(=O)C2=C([O-])c3ccccc3S(=O)(=O)N2C)s1.O.[Na+],11
10,C/C(=N/NC(=O)CN1CCN(Cc2ccccc2Cl)CC1)c1ccco1,-25.4
11,COC(=O)c1ccc(CNC(=O)CSC(C)C(=O)Nc2cc(C)on2)cc1 (stereo not drawn),-6.33
12,N/C(=N\OC(=O)c1ccco1)c1cccc(Br)c1,-7.94
13,O=C(N/N=C1\CC(c2ccccc2)Oc2ccccc21)c1cccnc1 (stereo not drawn),1.76
14,O=C(O)c1ccc(/C=N/NC(=O)c2ccc(NS(=O)(=O)c3cccs3)cc2)cc1,5.79
15,O=C(c1cccc(Cl)c1)N1CCN(c2ccccn2)CC1,-12.9
16,CCCC(=O)Nc1c2c(nc3ccccc13)N(c1ccccc1)CC2,-1.55
17,COC(=O)c1cccc2nc3c(C(C)O)cccc3nc12 (stereo not drawn),4.33
18,CCOCCCNC(=O)c1cccc(NC(=O)C2=C(C)OCCS2)c1,8.5
19,COC(C/C=C\[C@@H](O)[C@@H](C)OCc1ccccc1)OC,-3.91
20,CCc1cc2c(=O)n(CC(C)C)cnc2s1,2.98
21,Cc1cc(C(=O)NN=C2CCCCCC2)c(C)o1,-2.82
22,N#CCc1nc2ccccc2c(=O)[nH]1,-5.99
23,O=c1[nH]c(=O)n(CCC2=CCCCC2)c(O)c1C=NCCN1CCNCC1,-11.7

row,SMILES,"hERG current change (%, negative = inhibition) at 10uM [%]"
1,COc1ccc(/C=C(\C#N)C(=O)OCC(=O)NCc2ccco2)cc1,12.6
2,Cc1cccc(OCC(=O)Nc2cc(C)ccc2O)c1,12.4
3,C(=N\N(Cc1ccccc1)c1ccccc1)/c1ccco1,-11.5
4,CCOc1cccc2cc(C(=O)Oc3ccc(OC)cc3)c(=O)oc12,5.25
5,COc1cc(OC)c(-c2c3cc(O)c(=O)cc-3oc3cc(O)c(O)cc23)cc1OC,27.6
6,CCOC(=O)/C(N)=C/c1ncc(C(F)(F)F)cc1Cl,-2.34
7,CC1(C)CC(=O)N(CC(=O)NC2CCCC2)c2ccccc2S1(=O)=O,11.7
8,CSCC[C@H](NC(=O)[C@H](Cc1ccccc1)n1c(=O)[nH]c2ccccc2c1=O)C(=O)N1CCC(C(=O)O)CC1,4.98
9,CC(Oc1ccc2c3c(c(=O)oc2c1)CCCC3)C(=O)NCCCn1ccnc1 (stereo not drawn),-2.45
10,CC(Cc1ccsc1)NC(=O)CCc1nnc(CCc2ccccc2)o1 (stereo not drawn),10.6
11,CC(=NCCN(C)C)c1c(O)n(Cc2ccccc2)c(=O)[nH]c1=O,-1.7
12,CCCn1c(SCC(=O)NC(=O)NC(C)(C)C)n[nH]c1=O,22.7
13,CC(C)CCN1CCN(Cc2cn[nH]c2C2CCCCC2)CC1CCO (stereo not drawn),1.14
14,Cc1cccc(OC(=O)n2c(=S)oc3cc(Cl)ccc32)c1,18.3
15,CN(C)c1ccc(/C=N/NC(=O)C(O)c2ccc(Br)cc2)cc1 (stereo not drawn),11.9
16,N#Cc1ccc(CO/N=C/c2ccccc2)cc1,-1.65
17,O=C(NCC(=O)N1CCCC(C(F)(F)F)C1)c1ccc(Br)o1 (stereo not drawn),-13.3
18,Cc1ccc2cc(C#N)c(N3CCN(C(=O)c4cccs4)CC3)nc2c1,-34.2
19,COc1ccc(F)c(CN2CCC(CO)(Cc3cccc(C(F)(F)F)c3)CC2)c1,-58.4
20,Cc1ccc(S(=O)(=O)N2CCN(C(=O)COC(=O)C3CCC3)CC2)c(C)c1,-30.5
21,Cc1onc(-c2ccccc2)c1C(=O)NCc1cccs1,-6.41
